Measurements taken from the supplement of paper PMC4967469.
By IC50 is meant the dose at which the fit gives 50% viability; a fit beyond the top or the lowest dose is shown as a bound at that dose. AUC is the area under the same curve over the 256-fold range up to the top dose, as a fraction; the more sensitive the line, the further below 1. For some assays here: Any top dose called inferred comes from the curve model; the source does not state it. For some assays here: Where an entry number is given, a second screen of the drug exists; the two often differ.

How the values were obtained:
Assay in all cases: Viability of human cancer cell lines after 72 h of drug (GDSC screen)
[1] = compound: Oc1cccc(-c2nc(N3CCOCC3)c3oc4ncccc4c3n2)c1 [PI-103]; conditions: top dose 10.24 µM
Description: (§1)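 Human cancer cell lines in 384-well plates, medium with 10% serum, drug for 72 h over a 256-fold dose range (nine 2-fold or five 4-fold steps up to the top dose). Adherent lines were fixed and stained with the nucleic acid dye Syto60, suspension lines read with resazurin; signal relative to control wells, capped at 0 and 100%. One two-parameter sigmoid per drug and line, fitted in a mixed model over all curves with the slope shared within a line.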

[2] = compound: CCn1c(-c2nonc2N)nc2c(C#CC(C)(C)O)ncc(OC[C@H]3CCCNC3)c21 [GSK690693]; conditions: top dose 10.24 µM; top dose inferred
Description: as §1

[3] = compound: Cc1cccc(-c2[nH]c(C(C)(C)C)nc2-c2ccc3c(c2)OCO3)n1 [SB-505124]; conditions: top dose 10 µM; top dose inferred
Description: as §1

[4] = compound: COc1cc2c(NC3CCN(C(C)C)CC3)nc(C3CCCCC3)nc2cc1OCCCN1CCCC1 [UNC0638]
Description: as §1

[5] = compound: CC1=C(/C=C/C(C)=C/C=C/C(C)=C/C(=O)O)C(C)(C)CCC1 [Tretinoin]; conditions: top dose 10 µM; top dose inferred
Description: as §1

[6] = compound: O=C(NCCCNc1nc(Nc2cccc(NC(=O)N3CCCC3)c2)ncc1I)c1cccs1 [BX-795]; conditions: top dose 5 µM; top dose inferred
Description: as §1

[7] = top dose 20 µM, screen: GDSC drug entry 1236, top dose inferred
[8] = top dose 40 µM, screen: GDSC drug entry 245

Cell Line | AUC [1] | IC50 [1] [µM] | AUC [2] | IC50 [2] [µM] | AUC [3] | IC50 [3] [µM] | AUC [4, 7] | IC50 [4, 7] [µM] | AUC [4, 8] | IC50 [4, 8] [µM] | AUC [5] | IC50 [5] [µM] | AUC [6] | IC50 [6] [µM]
BT-20 (breast, adherent) | 0.566 | 1.01 | 0.818 | 7.66 | 0.982 | > 10 | 0.921 | > 20 | 0.97 | > 40 | 0.967 | > 10 | 0.972 | > 5
BT-483 (breast, adherent) | 0.555 | 1.03 | 0.971 | > 10.2 | 0.967 | > 10 | 0.875 | > 20 | 0.788 | > 40 | 0.925 | > 10 | 0.949 | > 5
BxPC-3 (pancreas, adherent) | 0.984 | > 10.2 | 0.984 | > 10.2 | 0.982 | > 10 | 0.815 | 12.8 | 0.706 | 10.3 | 0.946 | > 10 | 0.905 | > 5
C3A (liver, adherent) | 0.988 | > 10.2 | 0.988 | > 10.2 | 0.965 | > 10 | 0.97 | > 20 | 0.988 | > 40 | 0.988 | > 10 | 0.988 | > 5
C32 (melanoma, adherent) | 0.98 | > 10.2 | 0.987 | > 10.2 | 0.984 | > 10 | 0.985 | > 20 | 0.975 | > 40 | 0.957 | > 10 | 0.928 | > 5
C-4-I (cervix, adherent) | 0.981 | > 10.2 | 0.986 | > 10.2 | 0.985 | > 10 | 0.985 | > 20 | 0.969 | > 40 | 0.986 | > 10 | 0.95 | > 5
CADO-ES1 (Ewing sarcoma, suspension) | 0.532 | 0.786 | 0.971 | > 10.2 | 0.96 | > 10 | 0.98 | > 20 | 0.734 | 11.8 | 0.974 | > 10 | 0.955 | > 5
CAL-12T (non-small cell lung carcinoma, adherent) | 0.262 | 0.122 | 0.931 | > 10.2 | 0.982 | > 10 | 0.895 | > 20 | 0.781 | 18.7 | 0.976 | > 10 | 0.85 | 4.51
CAL-29 (bladder, adherent) | 0.983 | > 10.2 | 0.901 | > 10.2 | 0.913 | > 10 | 0.925 | > 20 | 0.885 | > 40 | 0.93 | > 10 | 0.781 | 2.24
CAL-39 (cervix, adherent) | 0.881 | > 10.2 | 0.985 | > 10.2 | 0.948 | > 10 | 0.874 | > 20 | 0.822 | 24.5 | 0.975 | > 10 | 0.87 | 4.97
